# Source: publication PMC12136788
# This is one part of the list.
# B1: chr1:17067390:17067767:-|3pUTR|ENSG00000117115|msi1|FALSE|unique (ssRNA)
# RNA: GGGAGUUCUACAGUCCGACGAUCCCCAACAUGCAAAGCCCACAUUUAAAGGCCAGCCUCUGCCCCUUCAGUGAUGCGCUCUUUAGAAAUGCCAGUCCACUAUAUUCAGAAAUCCGCAGGGCACAAAACUUCCAGCAAGUCACUCAACAGAGGAUUGAGCAUCA
# B2: chr6:105100707:105100870:-|3pUTR|ENSG00000112276|msi1|total|mutant (ssRNA)
# RNA: GGGAGUUCUACAGUCCGACGAUCUGAGAUAUAUAUUUUCACAGUCUUUUCCCGAUAUAUUAUUGUUUUAACUUAACAAAUCUCCGCAAUCUCUCAAUGCCUUUUCACUUAUUUUUUUCCAAGUUAUGAUUCUUUUUCCUCACACAACAGAGGAUUGAGCAUCA
# B3: chr1:119801171:119802827:-|three_prime_utr|ENSG00000134193|control|control|control (ssRNA)
# RNA: GGGAGUUCUACAGUCCGACGAUCAAUUCACAGAAAGGAUAAUGGAGUUUCUGUACAAGAUUUACCAGAAAGAGAGUGGUGUGUAGACAUGCCUGGAGCAGACACCUUGGAGCCGCUGACAGAAGGUGAAGCAGUCCAAGAAAACAACAGAGGAUUGAGCAUCA
# B4: ENSG00000107863:be:win_201|CDS|ENSG00000107863|bound_else_gene|NA|bound_elsewhere_windowed (ssRNA)
# RNA: GGGAGUUCUACAGUCCGACGAUCUAUUGUUUAUCCCCCAGAGUCUGCAAUUCAAUUUUCAUAUAAGGAUGAAGAAAAUGGAAACAGAGGAGGAAAACAAAGAAACCGCUUGGAACCAAUGGAUACCAUAUUUGUUAAGCAAGUCAACAGAGGAUUGAGCAUCA
# B5: chr4:112268257:112268372:+|CDS|ENSG00000138660|unk|total|mutant (ssRNA)
# RNA: GGGAGUUCUACAGUCCGACGAUCAGUAAUCCUACAUCAGCCUCUGAUGAUUCCAAUGGGCUGGAGUGGGAAAAUGAUUUUGUCCGUGCCGAAAUGGAUGAUAAUGGAAAUUCCGAGUAUUCUGGAUUUGUAAAUCCUGUAUUACAACAGAGGAUUGAGCAUCA
# B6: chr6:25850458:25850620:-|CDS|ENSG00000124564|control|control|control (ssRNA)
# RNA: GGGAGUUCUACAGUCCGACGAUCCUCAGAUCUCUACCCAUUUGGUCCAUAUGUUUAGGCUGUUUCAGCCAUCAAUGGUUAGUUAGCACAAUGGUUGUAUACAUACCAACUUACAUCAGCUCUGUGUACCAUGUUAACAUCAGACAACAGAGGAUUGAGCAUCA
# B7: chr1:202892395:202892497:-|3pUTR|ENSG00000117153|unk|total|mutant (ssRNA)
# RNA: GGGAGUUCUACAGUCCGACGAUCGCGAGAAGUGACCAUUGUUGGAGCACCAUCCAGAGCCCGUGACCAGUCCAGUGGACAGUCCGUGGGAGAAUCAAAAAUCCUUUCCAGAAUGUCUGUUUCUCACUAUGUGCACCGGGUGAUCAACAGAGGAUUGAGCAUCA
# B8: chr11:30010719:30012678:-|CDS|ENSG00000182255|control|control|control (ssRNA)
# RNA: GGGAGUUCUACAGUCCGACGAUCUUUGCUCAAGAAAUUUCGGAGCUCUACUUCUUCUUCCCUGGGGGACAAGUCAGAGUAUCUAGAGAUGGAAGAAGGAGUUAAGGAAUCUCUGUGUGCAAAGGAGGAGAAGUGUCAGGGAAACAACAGAGGAUUGAGCAUCA
# B9: chr1:109313209:109313310:-|3pUTR|ENSG00000134243|msi1|total|mutant (ssRNA)
# RNA: GGGAGUUCUACAGUCCGACGAUCCAGGGCAAUAUUUUUAACUUGGGGCAGGAAGAAGGGAGCAGCAGAGAAUUGACCCGAUACCGCACCUAUUAAAAGAGAACUCUUGCUUCUUCUGAGAUUUUUCAAGCUGUGCUUUGUGUGCAACAGAGGAUUGAGCAUCA
# B10: chr1:113685846:113685948:+|3pUTR|ENSG00000081026|unk|FALSE|unique (ssRNA)
# RNA: GGGAGUUCUACAGUCCGACGAUCUAUAUACACUUGAGGUUCUGAUUAGAGAAAGAUCUGUAAAUUGCUCAUUAUUUUUUAUAUAGAUAUUUAAAAAAAACAGUUUAUGGCCUGCAUUUCUUUUACUGUCACAUUGGUUUAAUGCAACAGAGGAUUGAGCAUCA
# B11: chr19:19663270:19663666:-|CDS|ENSG00000105726|control|control|control (ssRNA)
# RNA: GGGAGUUCUACAGUCCGACGAUCCGGGCAGCCCAAGCCCGGGCCGCAGCCGCGCGCGCUCCUUGCCGCCGGGCCGGCGCUCAUAGCGAACGGUGACGAGCUGGUGGCUGCCGUGUGGCCGUACCGGCGGUUGGCGCUGUUGCGCAACAGAGGAUUGAGCAUCA
# B12: chr20:7981316:7981417:-|3pUTR|ENSG00000125827|unk|FALSE|bound_elsewhere (ssRNA)
# RNA: GGGAGUUCUACAGUCCGACGAUCUAAGUUUUCUAAGCAAUAUUUUUCAAGCCAGAAGUCCUCUAAGUCUUGCCAGUACAAGGUAGUCUUGUGAAGAAAAGUUGAAUACUGUUUUGUUUUCAUCUCAAGGGGUUCCCUGGGUCUCAACAGAGGAUUGAGCAUCA
# B13: chr7:95297675:95299102:-|three_prime_utr|ENSG00000005421|control|control|control (ssRNA)
# RNA: GGGAGUUCUACAGUCCGACGAUCACAGUGUUUCACAAAGCUCUUUACUGUGAGCUCUAACAGACCGAUUUGCACCCAUGCCAUAGAAACUGAGGCCAUUAUUUCAACCGCUUGCCAUAUUCCGAGGACCCAGUGUUCUUAGCUCAACAGAGGAUUGAGCAUCA
# B14: chr1:235448940:235449205:-|3pUTR|ENSG00000162885|unk|FALSE|unique (ssRNA)
# RNA: GGGAGUUCUACAGUCCGACGAUCAAUAGAGAAUUCCAUUAAAACUAGUCUUAUGACAGAUAUUAACUGUGUUCAGAUUUUAUUAGGCUAGCUAGUUUCUUUCUAUUUAAUAUUUAAAUCUUAUCAUGAAAUGCAGUGAUGAGCCAACAGAGGAUUGAGCAUCA
# Target: MSI1 full-length (mouse, UniProt Q61474 1-362)
# Sequence of UniProt Q61474 (Q61474 whole entry): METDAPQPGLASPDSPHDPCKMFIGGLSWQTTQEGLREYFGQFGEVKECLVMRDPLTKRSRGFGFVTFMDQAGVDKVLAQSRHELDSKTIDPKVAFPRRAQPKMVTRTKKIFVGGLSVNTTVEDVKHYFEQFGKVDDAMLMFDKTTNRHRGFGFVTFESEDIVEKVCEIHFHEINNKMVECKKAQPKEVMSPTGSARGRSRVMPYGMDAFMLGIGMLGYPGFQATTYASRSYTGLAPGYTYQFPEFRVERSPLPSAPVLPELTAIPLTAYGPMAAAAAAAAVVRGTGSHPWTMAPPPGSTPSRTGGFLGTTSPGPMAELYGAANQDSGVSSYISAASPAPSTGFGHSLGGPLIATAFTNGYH
# Experiment: nsRBNS (natural sequence RNA bind-n-seq); RBNS binding buffer (assumed for nsRBNS): 25 mM Tris pH 7.5, 150 mM KCl, 3 mM MgCl2, 0.01% Triton X-100, 500 ug/ml BSA, 20 U/ml SUPERase-In, 4 C; UNK is unkempt and MSI1 is Musashi-1; names of the RNAs are library labels; protein concentration not given here; high values mean tight binding
row,Binder,binding signal [enrichment R]
1,B1,1.49
2,B2,2.22
3,B3,0.53
4,B4,0.208
5,B5,0.258
6,B6,0.737
7,B7,0.267
8,B8,0.563
9,B9,0.648
10,B10,13.4
11,B11,0.223
12,B12,0.499
13,B13,0.575
14,B14,13.3
